What all share (experiment): Primary Screen for Target Class Profiling of Small Molecule Inhibitors of Methyltransferases
Experiment [1] addresses Glycine N-methyltransferase (Homo sapiens) (UniProt Q14749). The following applies: purified enzyme, MTase-Glo SAH luminescence; measured here: GNMT inhibition; at 40 µM; stronger effect = lower value. The text has this: (§1) PI: Matthew D. Hall Ph.D. and Quinlin M. Hanson Ph.D.
(§2) National Center for Advancing Translational Sciences (NCATS)
(§3) National Institute of Health (NIH), Rockville, MD
(§4) Target class profiling (TCP) is a chemical biology approach amenable to investigating understudied biological targets. TCP is achieved by developing a generalizable assay platform and applying it to screen a curated set of compound libraries against representative members of a target class. Small molecule methyltransferases (SMMTase) are a subclass of methyltransferase that act on metabolites to modulate signaling pathways, metabolize xenobiotics, or balance the available methyl pool. We screened four curated libraries totaling 27,574 unique compounds against the SMMTases nicotinamide N-methyltransferase (NNMT), phenylethanolamine N-methyltransferase (PNMT), histamine N-methyltransferase (HNMT), glycine N-methyltransferase (GNMT), catechol O-methyltransferase (COMT), and guanidinoacetate N-methyltransferase (GAMT). The data generated by this TCP can be leveraged for informed tool molecule development. For example, in the associated publication we identified a chemotype of HNMT-selective inhibitors. Additionally, we identified a putative SMMTase-selective inhibitor with potential as a tool molecule for studying broader methyltransferase biology.
(§5) High-through put screening assays were developed at the National Center for Advancing Translational Science (NCATS) for the enzymes NNMT, PNMT, HNMT, GNMT, COMT, and GAMT. Enzymatic activity was measured as a function of SAM cofactor conversion using the MTase Glo kit (Promega) for all enzymes. All assays were performed in 1536-well format with substrates and SAM concentrations at KM values. Enzyme concentration and assay timing were optimized for 10-20% SAM conversion. Initial screening of 27,574 compounds was done as single-point assays using the highest compound concentration (40 uM). […] These compounds were replated in 11-point dose response and assayed against NNMT, PNMT, HNMT, GNMT, COMT, GAMT, and a counter-assay. The IC50 and efficacy (maximal response) values were determined for each dose-response curve. These values are also accounted for in the area under the curve (AUC) values.
(§6) PROTOCOL TABLE (as described by Inglese J, Shamu CE and Guy RK. 2007)
(§7) SEQUENCE No. (e.g., 1, 2, 3, etc.); […] (e.g., Cells, Incubation, Reagent, etc.); VALUE; DESCRIPTION.
(§8) 1; Reagent; 2 uL; SMMTase Enzyme (2x) in reaction buffer, columns 1- 48.
(§9) 2; Reagent; 1 uL; SAM (4x) in reaction buffer, columns 1-48.
(§10) 3; Controls; 23 nL; DMSO in column 4; sinefungin in DMSO (0 uM - 40 uM) in 7-point 1:2 dilution series (n = 2) in column 2.
(§11) 4; Compounds; 23 nL; Columns 5-48.
(§12) 5; Reagent; 1 uL; Substrate (4x) in reaction buffer, columns 2-48.
(§13) 6; Time; 20-30 min; Incubation.
(§14) 7; Reagent; 1 uL; MTase-Glo reagent (5X), columns 1-48.
(§15) 8; Time; 30 min; Incubation.
(§16) 9; Reagent; 5 uL; MTase-Glo Detection reagent, columns 1-48.
(§17) 10; Time; 30 min; Incubation, luminescence evolution.
(§18) 11; Detection; Luminescence; ViewLux uHTS Microplate Imager (PerkinElmer).
(§19) NOTES (numbers refer to Sequence numbers above)
(§20) 1, 2, 5. White Medium Binding Greiner 1536-well plates (Cat #789175-F, Greiner Bio-One, Monroe, NC); Reaction buffer: 50 mM Tris, pH 8.0, 3 mM MgCl2, 1 mM EDTA, 50 mM NaCl, 1 mM DTT, and 0.1 mg/mL BSA. Evaporation was prevented by covering assay plates with metal lids containing holes to allow gas diffusion.
(§21) 1. Six SMMTase were profiled: HNMT, GNMT, PNMT, COMT, NNMT, GAMT
(§22) 5. The corresponding substrate was used for each enzyme: HNMT - 5.3 uM Histamine; GNMT - >500 uM Glycine; PNMT - 16.2 uM Norephinephrine; COMT - 13.7 uM Norephinephrine; NNMT - 3.8 uM Nicotinamide; GAMT - 2.5 uM Guanidinoacetate.6, 8, 10. Room temperature
(§23) 6. Final reaction conditions: 10 nM COMT, 5 uM SAM, 15 uM norepinephrine, 50 mM Tris, pH 8.0, 3 mM MgCl2, 1 mM EDTA, 50 mM NaCl, 1 mM DTT, and 0.1 mg/mL BSA; refer to tables 2 and S1 for specific timing.
8. […]

In experiment [2] the target is Guanidinoacetate N-methyltransferase (Homo sapiens) (UniProt Q14353). The following applies: purified enzyme, MTase-Glo SAH luminescence; measured here: GAMT inhibition; at 40 µM; stronger effect = lower value.
From the text: as §1, §2, §3, §4, §5, §6, §7, §8, §9, §10, §11, §12, §13, §14, §15, §16, §17, §18, §19, §20, §21, §22, §23
8. […]

For experiment [3], the target named is Histamine N-methyltransferase (Homo sapiens) (UniProt P50135). The following applies: purified enzyme, MTase-Glo SAH luminescence; measured here: HNMT inhibition; at 40 µM; stronger effect = lower value.
From the text: as §1, §2, §3, §4, §5, §6, §7, §8, §9, §10, §11, §12, §13, §14, §15, §16, §17, §18, §19, §20, §21, §22, §23
8. […]

The target of experiment [4] is Nicotinamide N-methyltransferase (Homo sapiens) (UniProt P40261). Conditions: purified enzyme, MTase-Glo SAH luminescence; measured here: NNMT inhibition; at 40 µM; stronger effect = lower value.
From the text: as §1, §2, §3, §4, §5, §6, §7, §8, §9, §10, §11, §12, §13, §14, §15, §16, §17, §18, §19, §20, §21, §22, §23
8. […]

The target of experiment [5] is Phenylethanolamine N-methyltransferase (Homo sapiens) (UniProt P11086). The following applies: purified enzyme, MTase-Glo SAH luminescence; measured here: PNMT inhibition; at 40 µM; stronger effect = lower value.
From the text: as §1, §2, §3, §4, §5, §6, §7, §8, §9, §10, §11, §12, §13, §14, §15, §16, §17, §18, §19, §20, §21, §22, §23
8. […]

Our source for the activity change, negative = inhibition values is PubChem BioAssay AID1745853 (National Center for Advancing Translational Sciences (NCATS), 2022).

This is one part of the list. Further columns of the screen follow, without active or inactive calls.
On the % scale 0 is the no-effect control and ±100 the full control effect.

Turning to `COc1cccc(CCC(=O)N2CC(F)(F)C[C@H]2c2nc(C)no2)c1`, the activity change, negative = inhibition in experiment [1] is -1.23%; in experiment [2] it was -0.156%; in experiment [3], 1.55%; in experiment [4], -1.25%; in experiment [5], 2.51%.
As to `CC1(C(=O)NC2CCCCC2)Cn2nc(C3CC3)cc2C(=O)N1Cc1ccccc1Cl` (stereo not given), the activity change, negative = inhibition in experiment [1] was -4.05%; in experiment [2] it was 2.55%; in experiment [3] it was 2.04%; in experiment [4], -5.28%; in experiment [5], -0.804%.
Regarding `CCCCN1C(=O)c2cc(C(=O)N3CCN(CCC)CC3)nn2CC1(C)C(=O)NC1CCCC1` (stereo not given), the activity change, negative = inhibition came out at 5.72% in experiment [1]; 0% in experiment [2]; 9.21% in experiment [3]; 3.52% in experiment [4]; 2.55% in experiment [5].
For `CC(C)N(C)Cc1nnnn1CC(=O)N1CCC(CCn2cccn2)CC1`, the activity change, negative = inhibition in experiment [1] stood at 1.83%; in experiment [2] it was 0.236%; in experiment [3], 0.462%; in experiment [4], 3.8%; in experiment [5] it was 8.98%.
Take `COc1ccc(OC)c(NC(=O)c2sc(=S)n3c2[nH]c(=O)c2ccc(Cl)cc23)c1`: the activity change, negative = inhibition in experiment [1] is -19.8%; in experiment [2], 0.502%; in experiment [3], -16.9%; in experiment [4], -12.5%; in experiment [5], -67.9%.
The like results for `Cc1ccccc1CNC(=O)CNC(=O)C1(C)Cn2c(cc3ccccc32)C(=O)N1C` (stereo not given) were, in that order, 0.285%, 0%, 11.6%, 3.78% and 3.27%.
Consider `COc1ccc2cc3n(c2c1)CC(C)(C(=O)NC1CCCCC1)N(Cc1ccc(C)cc1)C3=O` (stereo not given), for which the activity change, negative = inhibition in experiment [1] was determined as 4.02%; in experiment [2], 1.36%; in experiment [3] it was 8.18%; in experiment [4], 1.1%; in experiment [5] it was 2.07%.
Consider `CCOC(=O)[C@H]1O[C@@H]1C(=O)N[C@@H](CC(C)C)C(=O)NCCC(C)C`, for which the activity change, negative = inhibition is -4.56% in experiment [1]; -9.25% in experiment [2]; 9.58% in experiment [3]; -11.8% in experiment [4]; 2.16% in experiment [5].
Turning to `Cc1ccc(C(=O)Cn2nc3n(CCC(C)C)c(=O)c4ccc(C(=O)NC5CCCC5)cc4n3c2=O)cc1`, the activity change, negative = inhibition in experiment [1] was 4.31%; in experiment [2] it was 4.82%; in experiment [3], 4.44%; in experiment [4], 0.553%; in experiment [5], 0.386%.
Take `Cc1nc(-c2ccc(CNC(=O)CN3CCN(c4ncccn4)CC3)cc2)no1`: the activity change, negative = inhibition is -3.63% in experiment [1]; -0.382% in experiment [2]; -0.108% in experiment [3]; -1.21% in experiment [4]; -3.36% in experiment [5].
As for `CCOc1ccc(CCN2C(=O)c3cc(C(=O)OC)nn3CC2(C)C(=O)NC2CCCCC2)cc1` (stereo not given), the activity change, negative = inhibition amounted to 5.12% in experiment [1]; 0.735% in experiment [2]; 11.9% in experiment [3]; 6.07% in experiment [4]; 4.78% in experiment [5].
For `C[C@]1(CO)[C@H]2Cc3sc(-c4ccsc4)nc3[C@@H](CC(=O)NCc3ccco3)[C@]2(C)CC[C@H]1O` the same measures were -12.2%, -11.3%, -5.62%, -6.52% and -1.79%.
For `CC(=O)Nc1ccc(OCC(=O)NCc2ccccc2C)nc1` the same measures were -4.56%, -5.4%, -7.73%, -9.72% and -9.78%.
Turning to `CC(C)(C)c1cc2n(n1)CC(C)(C(=O)NC1CCCCC1)N(Cc1ccc(Cl)cc1)C2=O` (stereo not given), the activity change, negative = inhibition is -6.5% in experiment [1]; -2.57% in experiment [2]; -2.69% in experiment [3]; -8.4% in experiment [4]; -4.82% in experiment [5].
